The values below come from PubChem BioAssay (NCI).

Values joined by “and” are separate entries in the source; they are usually repeats but may differ in a detail not shown here. Identical values can stand only once.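 How tested: cells in 96-well plates exposed to compound for 48 hours at five concentrations. The concentration for 50% growth inhibition is given as GI50. TGI is the concentration that stops growth completely.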

The subject of this test is NCI-H322M lung. The test is described as follows: NCI anticancer screen, dose series, 48 h.
With `Cn1c(Nc2ccccc2)c(C=Nc2ccccc2)c(=O)n(C)c1=O`, the TGI is more than 100 µM.

In the case of `NC(=N\N=C/c1cccc([N+](=O)[O-])c1)/C(N)=N\N=C/c1cccc([N+](=O)[O-])c1`, the GI50 was more than 100 µM and the TGI was more than 100 µM.

Turning to `NC1=NN(c2ccccc2)C2(O)c3ccncc3C3=NN(c4ccccc4)C(=O)C132` (stereo not given), the TGI is more than 100 µM.

As to `CCN(CC)C(=S)SNCc1ccc(S(N)(=O)=O)cc1`, the TGI was more than 100 µM.

In the case of `CCCCCCCCC/C=C1\CC(CO)(COC(=O)C2CCCCC2)OC1=O` (stereo not given), the TGI was 0.46 µM.

Consider `COC(=O)c1ccc(N=NN(C)COc2ccc([N+](=O)[O-])cc2)cc1`, for which the TGI is more than 100 µM.

Compound `N#Cc1c(Cl)c2ccccc2n2c1nc1ccccc12` returned a TGI of more than 100 µM.

In turn, `C/C(=N/O)c1cccc(Nc2nc3ccc(Cl)cc3c3[nH]c4ccccc4c23)c1` registered a TGI of 2.72 µM.

Turning to `CC1=NN(c2nc(N)nc(CSCc3nc(N)nc(N(C)C)n3)n2)C(C)(C)C1`, the TGI was more than 100 µM.

For the compound `CC/C(=C(/CC)c1ccc(O)cc1)c1ccc([O-])cc1.CC/C(=C(/CC)c1ccc(O)cc1)c1ccc([O-])cc1.O=C([CH-]C(=O)c1ccccc1)c1ccccc1.O=C([CH-]C(=O)c1ccccc1)c1ccccc1.[Ti+4]`, the GI50 is 14.8 µM and the TGI was 38.6 µM.

Consider `CCSC1=N/C(=C\c2ccco2)C(Cl)=N1`, for which the TGI was more than 100 µM.

For the compound `COc1ccc(C(c2c[nH]c3ccc(Br)cc23)c2c[nH]c3ccc(Br)cc23)cc1`, the TGI stood at 0.924 µM.

Compound `Cc1cc(C)nc(NS(=O)(=O)c2ccc(Nc3c4ccc(Cl)cc4nc4c(C(=O)Nc5ccc(S(=O)(=O)N=C(N)N)cc5)cccc34)cc2)n1` showed a TGI of more than 100 µM.

In turn, `COc1cccc2c(Nc3ccc(S(=O)(=O)NC(C)=O)cc3)c3ccc([N+](=O)[O-])cc3nc12` yielded a TGI of more than 100 µM.

On to `O=c1c2cc([N+](=O)[O-])ccc2n2n1Cc1ccccc1C2`, for which the TGI was more than 100 µM.

For the compound `COc1cc(C=Nc2ccc(C(C)C)cc2)cc(OC)c1OC`, the TGI is more than 100 µM.

For `CCC1=CC2Cc3nc4cc(Cl)ccc4c(N)c3C(C1)C2` (stereo not given), the TGI came out at 17.2 µM.

Compound `[N-]=[NH+]CC(=O)OC(COCc1ccccc1)COCc1ccccc1` displayed a TGI of more than 100 µM.

Regarding `CCOc1ccc(Nc2nc(-c3ccc4c(c3)NC(=O)CO4)cs2)cc1`, the GI50 was 50.9 µM and the TGI is more than 100 µM.

For the compound `O=C(N/N=C/c1ccccc1Cl)c1ccccc1Nc1ccnc(C(F)(F)F)c1`, the GI50 is 0.58 µM and the TGI turned out to be 4.86 µM.

`O=C(CCc1ccc(O)cc1)NCCc1cccc(OCc2ccccc2)c1` displayed a TGI of more than 100 µM.

As to `C#C[C@]1(O)CCC2C3CCc4cc(Oc5nc(F)nc(-c6c7cc8ccccc8cc7c7n6CCS7)n5)ccc4C3CCC21C` (stereo not given in full), the TGI is more than 100 µM.

As to `Cc1ccc(-c2nc(N)nc3c2nnn3Cc2cccc(CO[C@H]3CCOC3)n2)o1`, the GI50 was more than 100 µM and the TGI is more than 100 µM.

For `COc1ccc2c(c1)OC1=C(C(=O)OC1)C2c1cc(OC)c(OC)c(OC)c1` (stereo not given), the GI50 was 1.27 µM and the TGI was more than 100 µM.

`COc1cc(C2=C(C#N)C(N)OC3=C2COc2ccccc23)cc(OC)c1OC` (stereo not given) came in with a TGI of 32.7 µM.

Turning to `Cc1cccc2[s+]snc12`, the TGI is more than 100 µM.

With `O=C(Nc1ccc(F)cc1)C(=O)C(C1OC(=O)c2ccccc21)[N+](=O)[O-]` (stereo not given), the TGI was more than 100 µM.

In turn, `Cc1ccc(C(=O)C(Cl)C(Cl)c2ccc(C)cc2)cc1` (stereo not given) registered a TGI of 27.1 µM.

As for `Nc1cc(-c2cccc(OC(F)(F)F)c2)nc2ccc(N3CCCC3)cc12`, the GI50 was 0.305 µM and 0.208 µM and 0.125 µM; the TGI was more than 100 µM.

`COc1cc(C(=O)C/C(CCC(=O)Nc2ccc(Cl)cc2C)=N/NC(=O)C(N)=O)ccc1O` returned a TGI of more than 100 µM.

On to `O=C([O][Hg][CH2]C1COCC([CH2][Hg][O]C(=O)c2ccccc2)O1)c1ccccc1` (stereo not given), for which the GI50 is 16.6 µM and the TGI was 31.6 µM.

With `CCCN1CN(C(C(=O)N[C@@H]2C(=O)N3C(C(=O)O)=C(C)CSC23)c2ccc(O)cc2)CSC1=S` (stereo not given in full), the TGI is more than 100 µM.

As for `CN(C)CCCCN1c2ccccc2Sc2cc(N=[N+]=[N-])ccc21`, the TGI was determined as 8.79 µM.

The compound `COc1ccc(-c2c(CN3CCOCC3)sc3nc4ccccc4n23)cc1` gave a TGI of 97.8 µM.

Turning to `N#CC(Nc1ccccc1)c1ccc(C(C#N)Nc2ccccc2)cc1` (stereo not given), the TGI is more than 100 µM.

For `CC12CCC(C(=O)N3CC=CCC3)(OC1=O)C2(C)C` (stereo not given), the TGI is more than 100 µM.

As for `COc1cc2c(Oc3ccc4[nH]c(C)cc4c3F)ccnc2cc1OCC1(N)CC1`, the GI50 was 2.76 µM and the TGI stood at 12.4 µM.

Regarding `O=C1c2cc([N+](=O)[O-])ccc2-c2cccc(F)c21`, the TGI was more than 100 µM.

`CC[Si](CC)(CC)OC[C@]1([C@@H]2COC(C)(C)O2)CC=CC(=O)O1`: the GI50 is 25.8 µM and the TGI stood at 80.4 µM.

Consider `CCC(=O)NC(Nc1ccc(O)cc1)(C(F)(F)F)C(F)(F)F`, for which the TGI was more than 100 µM.

`O=c1c2cccnc2cc(-c2ccccc2)n1CCO` had a TGI of more than 100 µM.

`O=c1oc2ccccc2c(O)c1C(c1ccc(/C=C/c2ccccc2)cc1)c1c(O)c2ccccc2oc1=O`: the TGI was more than 100 µM.

`Cc1ccc(NC(=O)CCC/C(CC(=O)c2ccc(Br)cc2)=N/NC(=O)CC#N)cc1` displayed a TGI of more than 100 µM.

For `CCc1nc(N)nc(C(=O)NCCNC(=O)c2nc(N)nc(CC)c2C)c1C`, the TGI is more than 100 µM.

On to `COc1ccc(C2=C(N)c3c(OC)cccc3C2=O)cc1`, for which the TGI was more than 100 µM.

The compound `COc1ccc(NC(C)=O)cc1C1CCC(=O)N1` (stereo not given) showed a TGI of more than 100 µM.

For `CCOC(=O)C1C(c2ccc(OC)cc2)c2c([nH][nH]c2=O)CC1(O)OCC` (stereo not given), the TGI is more than 100 µM.

With `CC(=O)OC1COC(n2c(-c3ccc(Cl)cc3)cc(-c3ccccc3)c(C#N)c2=S)C(OC(C)=O)C1OC(C)=O` (stereo not given), the TGI is more than 100 µM.

In the case of `[O-][n+]1onc(-c2ccccc2)c1CN1CCOCC1`, the TGI is more than 100 µM.

Consider `O=C(c1ccco1)N(C(=S)N1CCN(c2ccccn2)CC1)C1CCCCC1`, for which the TGI was more than 100 µM.

For `Cc1nn(-c2ccccc2)c2[nH]c(=S)cnc12`, the TGI was more than 100 µM.

The compound `CCCCCC(CO)C(O)(C(F)(F)F)C(F)(F)F` (stereo not given) yielded a TGI of more than 10 µM.

`O=C(c1cccs1)N(C(=S)N1CCN(c2ccccn2)CC1)C1CCCCC1` showed a TGI of more than 100 µM.

With `O=S(=O)(c1ccc(N=C2NN=C(c3c[nH]c4ccccc34)CS2)cc1)N1CCOCC1`, the GI50 is more than 100 µM and the TGI is more than 100 µM.

As to `COc1ccc2c(CN3CCC[C@H]3C(=O)O)cc3cc4c(cc3c2c1)OCO4`, the GI50 was 15.4 µM and the TGI was determined as 69 µM.

Compound `COc1c2ccccc2c(OC)c2nc(C)ccc12` had a TGI of more than 100 µM.

Consider `CCN=c1cc2sc3cc(NCC)c(C)cc3nc-2cc1C`, for which the GI50 was 2.02 µM and the TGI was found to be 10.1 µM.

The compound `CC(=O)N/C(=C\c1cccc([N+](=O)[O-])c1)c1nc2c3c(ccc2[nH]1)C(=O)c1ccccc1C3=O` came in with a TGI of more than 100 µM.

`CC1=CC(=O)C(=O)C2=C1OC1(C2)C(C)CCC2C3(C)CCC(O)C(C)(C)C3CCC21C` (stereo not given): the TGI was determined as 55.8 µM.

Consider `CN(/N=C/c1ccccn1)C1=NCCCCN1`, for which the TGI was more than 100 µM.

On to `COC1OC(C)C(O)CC1OS(=O)(=O)c1ccc(C)cc1` (stereo not given), for which the TGI is more than 100 µM.

In the case of `COc1cc(Nc2cnc3cc(F)c(F)cc3n2)cc(OC)c1`, the TGI is more than 100 µM.

Take `COc1ccc2c(c1)N=C1CSC(c3cccc(Br)c3)N1C2` (stereo not given): the TGI was found to be 40.1 µM.

As for `O=C1c2ccccc2C2(O)NC(=S)N(c3ccccc3)C12O` (stereo not given), the TGI was more than 100 µM.

`CCN(CC)CCNC(=O)c1nn(C)c(=S)[nH]c1=S` came in with a TGI of more than 100 µM.

The compound `O=C(O)CC12C3C4C5C3C1C5C42` (stereo not given) yielded a TGI of more than 100 µM.

Compound `Cc1cc2cc3c(C)cc(=O)oc3c(C)c2o1` came in with a TGI of more than 100 µM.

Take `CCn1c(O)c(C=N)c(=O)n(CC)c1=O`: the TGI is more than 100 µM.

Regarding `COc1ccc(-c2nc3ncccn3c2/C=C/C(=O)c2cc(OC)c(OC)c(OC)c2)cc1`, the GI50 was 1.76 µM and the TGI came to 7.63 µM.

On to `NC(N)=N/N=C/c1c(-c2ccc([N+](=O)[O-])cc2)nc2n1CCS2`, for which the TGI came out at 26.1 µM.

In the case of `O=C1c2ccccc2-c2ccc(N=Nc3c(O)ccc4ccccc34)cc21`, the TGI is more than 100 µM.

`C=C(C)CN(CC#N)CC(=C)C` yielded a TGI of more than 100 µM.

Take `Nc1cn(Cc2ccccc2)c2nc(/C=C3/C=CC=CC3=O)c(O)n12`: the TGI was more than 100 µM.

For `CC(C)(C)[Si](C)(C)OCC1CCC(n2cnc3c(N)ncnc32)O1` (stereo not given), the TGI is more than 100 µM.

Compound `OC(C/C(=N\N1CCCCC1)c1cccs1)(C(F)(F)F)C(F)(F)F` yielded a TGI of more than 10 µM.

Regarding `COc1ccc(/C=C2\CCCCCC2=O)cc1`, the TGI is more than 100 µM.

On to `CC(=O)N(CCc1ccccc1)C(C#N)c1ccc(OCCCCCCCCCCOc2ccc(C(C#N)N(CCc3ccccc3)C(C)=O)cc2)cc1` (stereo not given), for which the TGI was more than 100 µM.

In turn, `NC(=O)C(c1ccccc1)N1OC2C(=O)N(c3cccc4ccccc34)C(=O)C2C1c1c2ccccc2c(Cl)c2ccccc12` (stereo not given) registered a TGI of 39.7 µM.

In the case of `Cn1nc(-c2ccccc2)nc1[N+](=O)[O-]`, the TGI was more than 10 µM.

Take `COc1c(Cl)c2c(c(OC)c1OC)-c1ccc(SC)c(=O)cc1[C@@H](NC(=O)OCC(F)(F)F)CC2`: the GI50 is less than 0.01 µM and the TGI was more than 100 µM.

Consider `CCOC(=O)c1c(-c2ccc(O)c(OC)c2)c(C#N)c(=S)n(C2OC(COC(C)=O)C(OC(C)=O)C(OC(C)=O)C2OC(C)=O)c1-c1ccccc1` (stereo not given), for which the TGI is more than 100 µM.

With `COC(=O)C(=O)C(C#N)c1ccc(CC#N)cc1` (stereo not given), the TGI was more than 100 µM.

In turn, `Cc1cccc(Cl)c1NC(=O)/C=C/c1ccccc1` registered a TGI of more than 100 µM.

Regarding `c1ccc2c(c1)-c1ccccc1C2N1CC2CCC(CC2)C1`, the TGI was found to be 99.1 µM.

In the case of `O=C1c2ccccc2C2=Nc3ccncc3CN12`, the TGI was more than 100 µM.

Take `COC(=O)C1=Cc2cc(OC)c(O)cc2[C@@H](c2ccc(O)c(OC)c2)[C@@H]1C(=O)OC`: the TGI was more than 100 µM.

Compound `COC(=O)c1ccccc1/C=C1\Cc2cc(C)cc(C)c2C1=O` gave a TGI of more than 100 µM.

`COc1ccc2cc3[n+](cc2c1OC)CCc1cc(O)c(O)cc1-3` came in with a TGI of more than 100 µM.

Regarding `Cc1cc(N2CCCC2)nc(NC2CCCC(Nc3ccnc4cc(Cl)ccc34)C2)n1` (stereo not given), the GI50 was 0.762 µM and the TGI worked out at 2.64 µM.
